# Data published in PubChem BioAssay (NCATS).
# The shares of active, inactive and inconclusive entries below differ from those in the screen. A potency beside an inconclusive call is a rough fit, not a confirmed value. The source made the active and inactive calls. The call rests on the fitted dose curve; in most records, active means well fitted curve in the direction sought with a large enough effect; inconclusive means small, poorly fitted or top-dose-only effect, or another doubt; inactive means no such curve, though single readings can be large; an effect the other way counts as inactive or inconclusive.
# What was measured:
# [1] = Viability qHTS for spleen associated tyrosine kinase inhibitor (SYKi) naive MV4-11 cells (AID 1963823); settings: MV4-11 AML viability, CellTiter-Glo luminescence, 72 h; viability (% of control): at 45 µM (top of the series); further: nearly all actives have a fitted effect of over 40% in size
# Outline: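 Read-out: CellTiter-Glo luminescence. Exposure: 72 hr, 37 C, 5% CO2, 95% humidity. Cells: MV4-11 without SYK inhibitor history, 500/well, qHTS format.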
# [2] = Viability qHTS for spleen associated tyrosine kinase inhibitor (SYKi) drug resistant MV4-11 cells (AID 1963824); further: nearly all actives have a fitted effect of over 35% in size
# Outline: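 CellTiter-Glo luminescence, read 10 min after reagent addition, reports viability after a 72 hr compound exposure. Cells are an MV4-11 line made resistant to SYK inhibition, seeded at 500 per well onto compound-containing plates.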
# [3] = Cellular viability qHTS for adrenocortical cancer (ACC) cell line SW-13 (AID 1963989); settings: SW-13 ACC cells viability, CellTiter-Glo, 48 h; activity (max response): active compounds read low; further: nearly all actives have a fitted effect of over 65% in size;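 on activity (max response): cells grown in serum-free medium with ITS supplement; on the % scale 0 is the no-effect control and ±100 the full control effect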
# Outline: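 IC50 and maximal-response values come from four-parameter logistic fits of titration data. SW-13 cells in serum-free medium received compounds (up to 46 uM final) for 48 h before CellTiter-Glo luminescence.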
# [4] = Cellular viability qHTS for adrenocortical cancer (ACC) cell line NCI-H295R (AID 1963990); settings: CellTiter-Glo ATP luminescence, 48 h; activity change, negative = viability loss: at 46.1 µM (top of the series); further: nearly all actives have a fitted effect of over 60% in size
# Outline: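 Adrenocortical carcinoma cells, suspended at 300 000 cells/mL in serum-free DMEM plus ITS, rested overnight before pin transfer of compound. After two days' incubation, ATP-dependent luminescence was recorded and curve-fitted.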
# Potency means the concentration at half of the fitted maximal effect; tags describe the fitted curve by direction and shape.
Structure (SMILES),Potency [1],Potency [2],Potency [3],Potency [4],activity (max response) [3]
Cc1ccc(Cl)c(Nc2ccccc2C(=O)O)c1Cl,"inconclusive: 15 µM [cytotoxic, partial curve, poor fit]",active: 15 µM,"inconclusive: 23.1 µM [cytotoxic, single point]","inconclusive: 18.4 µM [cytotoxic, partial curve]",–
CC(C)[C@](O)(c1ccc2cc(OC(F)F)c(OC(F)F)cc2c1)c1cn[nH]n1,"inconclusive: 16.6 µM [cytotoxic, partial curve]",active: 14.8 µM,"inconclusive: 22.4 µM [cytotoxic, partial curve]",active: 25.1 µM,–
CC1=C(C(=O)OC(C)C)C(c2cccc([N+](=O)[O-])c2)C(C(=O)OC2CN(C(c3ccccc3)c3ccccc3)C2)=C(N)N1 (stereo unspecified),"inconclusive: 4.22 µM [cytotoxic, full curve, poor fit]","inconclusive: 2.66 µM [cytotoxic, full curve]",–,"inconclusive: 3.26 µM [cytotoxic, partial curve, poor fit]",inactive: -4.04%
CC(=O)O[C@@H]1C(=O)O[C@@H]2[C@H]1OC(=O)[C@@H]2OC(C)=O,"inconclusive: 5.17 µM [cytotoxic, partial curve, poor fit]","inconclusive: 7.31 µM [cytotoxic, partial curve, poor fit]","inconclusive: 29.1 µM [cytotoxic, single point]","inconclusive: 25.9 µM [cytotoxic, single point]",–
